# From paper PMC6643034
# Results are given in words; binding and its absence hold for the method and conditions named. Some entries that bind do so weakly or less than the wild type. For some of these results: Where a sequence is shown, tags or fusion partners need not be part of it.
# T1: EVA3_RHISA (Rhipicephalus sanguineus) (UniProt P0C8E8)
# T1 sequence: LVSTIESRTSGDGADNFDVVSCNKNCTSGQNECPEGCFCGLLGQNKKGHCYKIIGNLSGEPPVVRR
# T2: P1126_AMBCA (Amblyomma cajennense)
# T2 sequence: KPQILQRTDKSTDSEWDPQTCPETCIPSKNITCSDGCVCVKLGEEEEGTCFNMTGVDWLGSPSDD
# T3: P1142_AMBCA (Amblyomma cajennense)
# T3 sequence: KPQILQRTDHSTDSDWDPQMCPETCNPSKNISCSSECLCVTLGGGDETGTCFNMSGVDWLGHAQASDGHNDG
# T4: P1172_IXORI (Ixodes ricinus) (UniProt V5I2G9)
# T4 sequence: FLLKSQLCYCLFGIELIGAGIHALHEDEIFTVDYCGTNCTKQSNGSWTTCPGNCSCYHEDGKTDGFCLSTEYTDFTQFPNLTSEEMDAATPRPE
# T5: P1126_AMBCA displayed on yeast (Amblyomma cajennense)
# T5 sequence: T2 sequence
# T6: P1142_AMBCA displayed on yeast (Amblyomma cajennense)
# T6 sequence: T3 sequence
# B1: CCL4L1 (ligand, UniProt Q8NHW4 24-92)
# chain: APMGSDPPTACCFSYTARKLPRNFVVDYYETSSLCSQPAVVFQTKRGKQVCADPSESWVQEYVYDLELN
# B2: biotinylated CXCL7 (ligand, UniProt P02775 59-128)
# chain: AELRCMCIKTTSGIHPKNIQSLEVIGKGTHCNQVEVIATLKDGRKICLDPDAPRIKKIVQKKLAGDESAD
# modifications: biotin
# Key:
# [1] = biological target: T1, EVA3_RHISA (Rhipicephalus sanguineus); assay: BLI; cross-binding screen on OctetRed; evasin held on a nickel-coated biosensor through its C-terminal His tag; each human chemokine at 300 nM; both purified
# [2] = biological target: P1078_IXORI (Ixodes ricinus); assay: as above
# [3] = biological target: P1080_IXORI (Ixodes ricinus); assay: as above
# [4] = biological target: P1086_IXORI (Ixodes ricinus); assay: as above
# [5] = biological target: P1090_IXORI (Ixodes ricinus); assay: as above
# [6] = biological target: P1100_IXORI (Ixodes ricinus); assay: as above
# [7] = biological target: P1124_IXORI (Ixodes ricinus); assay: as above
# [8] = biological target: T2, P1126_AMBCA (Amblyomma cajennense); assay: as above
# [9] = biological target: T3, P1142_AMBCA (Amblyomma cajennense); assay: as above
# [10] = biological target: T4, P1172_IXORI (Ixodes ricinus); assay: as above
# [11] = biological target: P942_IXORI (Ixodes ricinus); assay: as above
# [12] = biological target: T5, P1126_AMBCA displayed on yeast (Amblyomma cajennense); assay: flow cytometry on cells; yeast surface display; individual yeast clones displaying an evasin labelled with biotinylated chemokine plus streptavidin-AF647, against streptavidin-AF647 alone or control yeast with the display tag alone; only the binder purified
# [13] = biological target: T6, P1142_AMBCA displayed on yeast (Amblyomma cajennense); assay: as above
Binder,binding [1],binding [2],binding [3],binding [4],binding [5],binding [6],binding [7],binding [8],binding [9],binding [10],binding [11],binding [12],binding [13]
B1,no binding (tested: 300 nM),no binding (tested: 300 nM),no binding (tested: 300 nM),no binding (tested: 300 nM),no binding (tested: 300 nM),no binding (tested: 300 nM),no binding (tested: 300 nM),no binding (tested: 300 nM),no binding (tested: 300 nM),no binding (tested: 300 nM),no binding (tested: 300 nM),–,–
B2,–,–,–,–,–,–,–,–,–,–,–,binds,binds
